This is an account of results in PubChem BioAssay AID1645887 (National Center for Advancing Translational Sciences (NCATS), 2021).

Structures are written as SMILES. Several values for one entry are separate records, joined by “and”; a condition that tells them apart may be missing. Identical values can stand only once. In all, about 16,000 compounds went through this assay and about 40 (0.2%) were called active. About 1% were inconclusive and are not listed. Calls come from the whole dose curve; as a rule, active = well fitted activation curve with a large enough effect; inconclusive = small, poorly fitted or top-dose-only effect, or another doubt; inactive = no such curve, though single readings can be large or run the other way. The list shows a part of the results.
% is set by controls: 0 for no effect and ±100 for the full control effect.

Chain of UniProt Q8WZA2 (Q8WZA2 whole entry, looked up): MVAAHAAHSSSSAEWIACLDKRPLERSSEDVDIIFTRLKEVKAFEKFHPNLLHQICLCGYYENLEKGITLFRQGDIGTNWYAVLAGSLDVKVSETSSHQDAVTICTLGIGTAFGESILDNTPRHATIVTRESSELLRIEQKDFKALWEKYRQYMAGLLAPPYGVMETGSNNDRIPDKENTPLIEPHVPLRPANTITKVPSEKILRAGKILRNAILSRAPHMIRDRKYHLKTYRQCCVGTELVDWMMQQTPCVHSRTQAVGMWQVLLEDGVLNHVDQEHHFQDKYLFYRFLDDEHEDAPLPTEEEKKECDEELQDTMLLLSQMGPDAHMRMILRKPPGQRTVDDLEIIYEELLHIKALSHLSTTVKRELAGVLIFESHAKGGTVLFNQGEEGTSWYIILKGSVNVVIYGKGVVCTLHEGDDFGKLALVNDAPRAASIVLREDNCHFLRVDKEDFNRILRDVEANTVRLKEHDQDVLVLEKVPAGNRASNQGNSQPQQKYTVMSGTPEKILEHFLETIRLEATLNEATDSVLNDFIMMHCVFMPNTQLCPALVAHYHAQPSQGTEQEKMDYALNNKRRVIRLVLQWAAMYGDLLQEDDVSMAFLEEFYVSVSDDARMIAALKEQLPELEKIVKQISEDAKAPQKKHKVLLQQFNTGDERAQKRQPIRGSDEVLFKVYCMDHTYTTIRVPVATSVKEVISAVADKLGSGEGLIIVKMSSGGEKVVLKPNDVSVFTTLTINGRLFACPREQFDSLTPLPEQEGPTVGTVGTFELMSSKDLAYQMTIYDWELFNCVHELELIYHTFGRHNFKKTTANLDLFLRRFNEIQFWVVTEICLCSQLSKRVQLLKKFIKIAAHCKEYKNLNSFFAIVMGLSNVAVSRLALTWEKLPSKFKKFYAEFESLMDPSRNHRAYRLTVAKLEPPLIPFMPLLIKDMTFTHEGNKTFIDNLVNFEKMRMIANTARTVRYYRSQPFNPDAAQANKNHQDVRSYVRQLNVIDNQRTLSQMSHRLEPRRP

This assay deals with Rap guanine nucleotide exchange factor 4 (Homo sapiens) (UniProt Q8WZA2). Kind of assay: Validation qHTS for agonist of cAMP-regulated guanine nucleotide exchange factor 4 (EPAC2).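 Note: exchange makes BODIPY-GDP fluorescence drop when released from Rap1B; series mostly up to about 150 µM.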 The following applies: EPAC2 Rap1B BODIPY-GDP exchange, fluorescence; activation: stronger effect = higher value. In outline:
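Signal normalized against 6.5 mM cAMP as agonist control. Mix of EPAC2 (100 nM), RAP1B-BODIPY-GDP (250 nM) and GDP (50 uM) was read kinetically at 480/540 nm, every 5 min over 30 min, after 5 min room-temperature incubation with compound.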
(In qHTS, concentration-response curves come from the screen itself.)
On to `CCC(C(=O)NC(=O)NC(C)=O)c1ccccc1` (configuration not stated), for which the activation is inactive: -33.2%. With `O=c1c(-c2cc(F)cc(F)c2)nc2cncnc2n1-c1ccccc1` the figure was inactive: -11.6%; with `Cc1cccc(C)c1NC(=O)C(C)N` (configuration not stated), inactive: -18.1% and inactive: 5.87%. In the case of `O=C(O)C1CCCNC1` (configuration not stated) it was inactive: -17.2% and inactive: -13%; in that of `Cc1noc(C)c1C(=O)N1CCC[C@@]2(CCN(C(c3ccccc3)c3ccccc3)C2)C1`, inactive: 10%.

In the case of `CC(C(=O)O)c1ccc2c(c1)[nH]c1ccc(Cl)cc12` (configuration not stated), the activation was inactive: 7.27%. In the case of `O=C(c1cccc(Cn2cccn2)c1)N1CCC(n2c(C3CCCO3)nc3cc(C(F)(F)F)ccc32)CC1` (configuration not stated) it was inactive: -4.31%; in that of `CC1CC[C@@]2(OC1)OC1CC3C4CC[C@@H]5CC(O)CC[C@@]5(C)C4CC[C@]3(C)C1C2C` (some centres not stated), inactive: 0.782%. Take `CC(=O)N1CCC2(CC1)CCN(c1ccncc1)CC2`: the activation was inactive: -12%. `CC(=O)OC(C)(C)C1Cc2cc3ccc(=O)oc3cc2O1` (configuration not stated): the activation is inactive: -7.61%. With `O=C(C[n+]1csc2ccccc21)c1ccccc1` the figure was inactive: -11.6%; with `CCCCc1cc2ccccc2c(OCCN(C)C)n1`, inactive: -17.9%; with `C/C=C(/CC[C@@H](C)[C@H]1CC[C@H]2C3=CC[C@H]4[C@H](C)[C@@H](O)CC[C@]4(C)[C@H]3CC[C@]12C)C(C)C`, inactive: -14.3%. With `Cc1ccc2c(c1)CN(CCNC(=O)c1c(-c3ccccc3)noc1C)CC(C)O2` (configuration not stated) the figure was inactive: -6.02%.

On to `CCc1nc2cc(C(=O)NCC3CCS(=O)(=O)C3)cc(NC(=O)c3ccccc3OC)c2n1C` (configuration not stated), for which the activation is inactive: -18.6%. With `CC(C)NC(=O)N1CCCC2(CCN(C(=O)c3cccn3C)CC2)C1`, the activation is inactive: -3.58%. In the case of `COc1ccc(OC)c2c(/C=C/c3c(C)[nH]c4ccccc34)ccnc12` it was inactive: -11.1%; in that of `NC(=S)NCCC[C@H](N)C(=O)O`, inactive: 4.05% and inactive: -27.2%. With `COc1cccc(-c2cc(NCc3cccnc3)ncn2)c1`, the activation is inactive: -0.362%.

Turning to `CCNc1ncc2nc(C)c(=O)n(Cc3cccc(OC)c3)c2n1`, the activation was inactive: -8.52%. For `C[C@H]1O[C@@H](O[C@H]2[C@@H](O)C[C@H](O[C@H]3[C@@H](O)C[C@H](O[C@H]4CC[C@@]5(C)[C@H](CC[C@@H]6[C@@H]5C[C@@H](O)[C@]5(C)[C@@H](C7=CC(=O)OC7)CC[C@]65O)C4)O[C@@H]3C)O[C@@H]2C)C[C@H](O)[C@@H]1O`, the activation was inactive: -28.2% and inactive: 8.52%.

For `CN1CCN(C2=Nc3cc(F)ccc3Cc3ccccc32)CC1`, the activation was inactive: -0.804% and inactive: -3.25%.
